{"source": "the supplement of paper PMC8728848", "assay_in_all_cases": "glycan array binding signal (z-score within array); higher = stronger binding", "settings_in_all_cases": "glycan notation: IUPAC condensed, linker removed", "key": {"[1]": {"biological_target": "Gal(b1-4)GlcNAc(b1-3)Gal(b1-4)[Fuc(a1-3)]GlcNAc(b1-3)Gal(b1-4)[Fuc(a1-3)]GlcNAc", "in_short": "(§1)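 Glycan array data were curated from 3228 arrays in the Consortium for Functional Glycomics database and kept only where the protein sequence was available. Glycan names were converted to IUPAC-condensed notation, and columns mapping to the same glycan were averaged. The binding signal is a within-array Z-score, averaged across arrays of the same protein sequence at different concentrations or buffers and across linkers. Negative Z-scores can be read as non-binding.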"}, "[2]": {"biological_target": "Gal(b1-4)GlcNAc(b1-3)GalNAc", "in_short": "as §1"}, "[3]": {"biological_target": "Gal(b1-4)GlcNAc(b1-3)[Fuc(a1-3)GlcNAc(b1-6)]Gal(b1-4)Glc", "in_short": "as §1"}, "[4]": {"biological_target": "Gal(b1-4)GlcNAc(b1-3)[Gal(b1-4)GlcNAc(b1-6)]Gal(b1-4)GlcNAc", "in_short": "as §1"}, "[5]": {"biological_target": "Gal(b1-4)GlcNAc(b1-3)[Gal(b1-4)GlcNAc(b1-6)]GalNAc", "in_short": "as §1"}, "[6]": {"biological_target": "Gal(b1-4)GlcNAc(b1-3)[GlcNAc(b1-6)]Gal(b1-4)GlcNAc", "in_short": "as §1"}, "[7]": {"biological_target": "Gal(b1-4)GlcNAc(b1-6)Gal(b1-4)GlcNAc", "in_short": "as §1"}, "[8]": {"biological_target": "Gal(b1-4)GlcNAc(b1-6)Gal(b1-4)GlcNAc(b1-6)GalNAc", "in_short": "as §1"}, "[9]": {"biological_target": "Gal(b1-4)GlcNAc(b1-6)GalNAc", "in_short": "as §1"}, "[10]": {"biological_target": "Gal(b1-4)GlcNAc(b1-6)[Gal(b1-3)]GalNAc", "in_short": "as §1"}, "[11]": {"biological_target": "Gal(b1-4)GlcNAc(b1-6)[Gal(b1-3)]GlcNAc", "in_short": "as §1"}, "[12]": {"biological_target": "Gal(b1-4)GlcNAc(b1-6)[Gal(b1-4)GlcNAc(b1-3)]GalNAc", "in_short": "as §1"}, "Gal(b1-4)GlcNAc6P": {"biological_target": "Gal(b1-4)GlcNAc6P", "in_short": "as §1"}, "Gal(b1-6)Gal": {"biological_target": "Gal(b1-6)Gal", "in_short": "as §1"}, "Gal3S(b1-3)GalNAc": {"biological_target": "Gal3S(b1-3)GalNAc", "in_short": "as §1"}, "Gal3S(b1-3)GlcNAc": {"biological_target": "Gal3S(b1-3)GlcNAc", "in_short": "as §1"}, "[13]": {"biological_target": "Gal3S(b1-3)[Fuc(a1-4)]GlcNAc", "in_short": "as §1"}, "Gal3S(b1-4)Glc": {"biological_target": "Gal3S(b1-4)Glc", "in_short": "as §1"}, "Gal3S(b1-4)Glc6S": {"biological_target": "Gal3S(b1-4)Glc6S", "in_short": "as §1"}, "Gal3S(b1-4)GlcNAc": {"biological_target": "Gal3S(b1-4)GlcNAc", "in_short": "as §1"}, "Gal3S(b1-4)GlcNAc6S": {"biological_target": "Gal3S(b1-4)GlcNAc6S", "in_short": "as §1"}, "[14]": {"biological_target": "Gal3S(b1-4)[Fuc(a1-3)]Glc", "in_short": "as §1"}, "[15]": {"biological_target": "Gal3S(b1-4)[Fuc(a1-3)]Glc6S", "in_short": "as §1"}}, "note": "The list shows a part of the results.", "data": [{"binder": "Gal 2 (Homo sapiens), P05162 (protein) MTGELEVKNMDMKPGSTLKITGSIADGTDGFVINLGQGTDKLNLHFNPRFSESTIVCNSLDGSNWGQEQREDHLCFSPGSEVKFTVTFESDKFKVKLPDGHELTFPNRLGHSHLSYLSVRGGFNMSSFKLKE", "values": [{"measurement": "glycan array binding signal (z-score)", "setting": "[1]", "result": -0.024}, {"measurement": "glycan array binding signal (z-score)", "setting": "[2]", "result": 0.085}, {"measurement": "glycan array binding signal (z-score)", "setting": "[3]", "result": -0.047}, {"measurement": "glycan array binding signal (z-score)", "setting": "[4]", "result": 0.655}, {"measurement": "glycan array binding signal (z-score)", "setting": "[5]", "result": 1.05}, {"measurement": "glycan array binding signal (z-score)", "setting": "[6]", "result": 0.016}, {"measurement": "glycan array binding signal (z-score)", "setting": "[7]", "result": -0.191}, {"measurement": "glycan array binding signal (z-score)", "setting": "[8]", "result": 0.216}, {"measurement": "glycan array binding signal (z-score)", "setting": "[9]", "result": -0.135}, {"measurement": "glycan array binding signal (z-score)", "setting": "[10]", "result": -0.202}, {"measurement": "glycan array binding signal (z-score)", "setting": "[11]", "result": 0.507}, {"measurement": "glycan array binding signal (z-score)", "setting": "[12]", "result": 0.048}, {"measurement": "glycan array binding signal (z-score)", "setting": "Gal(b1-4)GlcNAc6P", "result": 0.002}, {"measurement": "glycan array binding signal (z-score)", "setting": "Gal(b1-6)Gal", "result": -0.229}, {"measurement": "glycan array binding signal (z-score)", "setting": "Gal3S(b1-3)GalNAc", "result": -0.228}, {"measurement": "glycan array binding signal (z-score)", "setting": "Gal3S(b1-3)GlcNAc", "result": 0.796}, {"measurement": "glycan array binding signal (z-score)", "setting": "[13]", "result": -0.247}, {"measurement": "glycan array binding signal (z-score)", "setting": "Gal3S(b1-4)Glc", "result": -0.192}, {"measurement": "glycan array binding signal (z-score)", "setting": "Gal3S(b1-4)Glc6S", "result": -0.109}, {"measurement": "glycan array binding signal (z-score)", "setting": "Gal3S(b1-4)GlcNAc", "result": 0.3}, {"measurement": "glycan array binding signal (z-score)", "setting": "Gal3S(b1-4)GlcNAc6S", "result": -0.039}, {"measurement": "glycan array binding signal (z-score)", "setting": "[14]", "result": -0.205}, {"measurement": "glycan array binding signal (z-score)", "setting": "[15]", "result": 0.897}]}]}
